{"source": "the supplement of paper PMC11876631", "proteins": {"B1": {"name": "mukB V714A (protein)", "chain": "MIERGKFRSLTLINWNGFFARTFDLDELVTTLSGGNGAGKSTTMAAFVTALIPDLTLLHFRNTTEAGATSGSRDKGLHGKLKAGVCYSMLDTINSRHQRVVVGVRLQQVAGRDRKVDIKPFAIQGLPMSVQPTQLVTETLNERQARVLPLNELKDKLEAMEGVQFKQFNSITDYHSLMFDLGIIARRLRSASDRSKFYRLIEASLYGGISSAITRSLRDYLLPENSGVRKAFQDMEAALRENRMTLEAIRVTQSDRDLFKHLISEATNYVAADYMRHANERRVHLDKALEFRRELHTSRQQLAAEQYKHVDMARELAEHNGAEGDLEADYQAASDHLNLVQTALRQQEKIERYEADLDELQIRLEEQNEVVAEAIERQQENEARAEAAELEVDELKSQLADYQQALDVQQTRAIQYNQAIAALNRAKELCHLPDLTADCAAEWLETFQAKELEATEKMLSLEQKMSMAQTAHSQFEQAYQLVVAINGPLARNEAWDVARELLREGVDQRHLAEQVQPLRMRLSELEQRLREQQEAERLLADFCKRQGKNFDIDELEALHQELEARIASLSDSVSNAREERMALRQEQEQLQSRIQSLMQRAPVWLAAQNSLNQLSEQCGEEFTSSQDVTEYLQQLLEREREAIVERDEVGARKNAVDEEIERLSQPGGSEDQRLNALAERFGGVLLSEIYDDVSLEDAPYFSALYGPSRHAIVAPDLSQVTEHLEGLTDCPEDLYLIEGDPQSFDDSVFSVDELEKAVVVKIADRQWRYSRFPEVPLFGRAARESRIESLHAEREVLSERFATLSFDVQKTQRLHQAFSRFIGSHLAVAFESDPEAEIRQLNSRRVELERALSNHENDNQQQRIQFEQAKEGVTALNRILPRLNLLADDSLADRVDEIRERLDEAQEAARFVQQFGNQLAKLEPIVSVLQSDPEQFEQLKEDYAYSQQMQRDARQQAFALTEVVQRRAHFSYSDSAEMLSGNSDLNEKLRERLEQAEAERTRAREALRGHAAQLSQYNQVLASLKSSYDTKKELLNDLQRELQDIGVRADSGAEERARIRRDELHAQLSNNRSRRNQLEKALTFCEAEMDNLTRKLRKLERDYFEMREQVVTAKAGWCAVMRMVKDNGVERRLHRRELAYLSADDLRSMSDKALGALRLAVADNEHLRDVLRMSEDPKRPERKIQFFVAVYQHLRERIRQDIIRTDDPVEAIEQMEIELSRLTEELTSREQKLAISSRSVANIIRKTIQREQNRIRMLNQGLQNVSFGQVNSVRLNVNVRETHAMLLDVLSEQHEQHQDLFNSNRLTFSEALAKLYQRLNPQIDMGQRTPQTIGEELLDYRNYLEMEVEVNRGSDGWLRAESGALSTGEAIGTGMSILVMVVQSWEDESRRLRGKDISPCRLLFLDEAARLDARSIATLFELCERLQMQLIIAAPENISPEKGTTYKLVRKVFQNTEHVHVVGLRGFAPQLPETLPGTDEAPSQAS"}, "B2": {"name": "mukB V714W (protein)", "chain": "MIERGKFRSLTLINWNGFFARTFDLDELVTTLSGGNGAGKSTTMAAFVTALIPDLTLLHFRNTTEAGATSGSRDKGLHGKLKAGVCYSMLDTINSRHQRVVVGVRLQQVAGRDRKVDIKPFAIQGLPMSVQPTQLVTETLNERQARVLPLNELKDKLEAMEGVQFKQFNSITDYHSLMFDLGIIARRLRSASDRSKFYRLIEASLYGGISSAITRSLRDYLLPENSGVRKAFQDMEAALRENRMTLEAIRVTQSDRDLFKHLISEATNYVAADYMRHANERRVHLDKALEFRRELHTSRQQLAAEQYKHVDMARELAEHNGAEGDLEADYQAASDHLNLVQTALRQQEKIERYEADLDELQIRLEEQNEVVAEAIERQQENEARAEAAELEVDELKSQLADYQQALDVQQTRAIQYNQAIAALNRAKELCHLPDLTADCAAEWLETFQAKELEATEKMLSLEQKMSMAQTAHSQFEQAYQLVVAINGPLARNEAWDVARELLREGVDQRHLAEQVQPLRMRLSELEQRLREQQEAERLLADFCKRQGKNFDIDELEALHQELEARIASLSDSVSNAREERMALRQEQEQLQSRIQSLMQRAPVWLAAQNSLNQLSEQCGEEFTSSQDVTEYLQQLLEREREAIVERDEVGARKNAVDEEIERLSQPGGSEDQRLNALAERFGGVLLSEIYDDVSLEDAPYFSALYGPSRHAIVWPDLSQVTEHLEGLTDCPEDLYLIEGDPQSFDDSVFSVDELEKAVVVKIADRQWRYSRFPEVPLFGRAARESRIESLHAEREVLSERFATLSFDVQKTQRLHQAFSRFIGSHLAVAFESDPEAEIRQLNSRRVELERALSNHENDNQQQRIQFEQAKEGVTALNRILPRLNLLADDSLADRVDEIRERLDEAQEAARFVQQFGNQLAKLEPIVSVLQSDPEQFEQLKEDYAYSQQMQRDARQQAFALTEVVQRRAHFSYSDSAEMLSGNSDLNEKLRERLEQAEAERTRAREALRGHAAQLSQYNQVLASLKSSYDTKKELLNDLQRELQDIGVRADSGAEERARIRRDELHAQLSNNRSRRNQLEKALTFCEAEMDNLTRKLRKLERDYFEMREQVVTAKAGWCAVMRMVKDNGVERRLHRRELAYLSADDLRSMSDKALGALRLAVADNEHLRDVLRMSEDPKRPERKIQFFVAVYQHLRERIRQDIIRTDDPVEAIEQMEIELSRLTEELTSREQKLAISSRSVANIIRKTIQREQNRIRMLNQGLQNVSFGQVNSVRLNVNVRETHAMLLDVLSEQHEQHQDLFNSNRLTFSEALAKLYQRLNPQIDMGQRTPQTIGEELLDYRNYLEMEVEVNRGSDGWLRAESGALSTGEAIGTGMSILVMVVQSWEDESRRLRGKDISPCRLLFLDEAARLDARSIATLFELCERLQMQLIIAAPENISPEKGTTYKLVRKVFQNTEHVHVVGLRGFAPQLPETLPGTDEAPSQAS"}, "B3": {"name": "mukB V714Q (protein)", "chain": "MIERGKFRSLTLINWNGFFARTFDLDELVTTLSGGNGAGKSTTMAAFVTALIPDLTLLHFRNTTEAGATSGSRDKGLHGKLKAGVCYSMLDTINSRHQRVVVGVRLQQVAGRDRKVDIKPFAIQGLPMSVQPTQLVTETLNERQARVLPLNELKDKLEAMEGVQFKQFNSITDYHSLMFDLGIIARRLRSASDRSKFYRLIEASLYGGISSAITRSLRDYLLPENSGVRKAFQDMEAALRENRMTLEAIRVTQSDRDLFKHLISEATNYVAADYMRHANERRVHLDKALEFRRELHTSRQQLAAEQYKHVDMARELAEHNGAEGDLEADYQAASDHLNLVQTALRQQEKIERYEADLDELQIRLEEQNEVVAEAIERQQENEARAEAAELEVDELKSQLADYQQALDVQQTRAIQYNQAIAALNRAKELCHLPDLTADCAAEWLETFQAKELEATEKMLSLEQKMSMAQTAHSQFEQAYQLVVAINGPLARNEAWDVARELLREGVDQRHLAEQVQPLRMRLSELEQRLREQQEAERLLADFCKRQGKNFDIDELEALHQELEARIASLSDSVSNAREERMALRQEQEQLQSRIQSLMQRAPVWLAAQNSLNQLSEQCGEEFTSSQDVTEYLQQLLEREREAIVERDEVGARKNAVDEEIERLSQPGGSEDQRLNALAERFGGVLLSEIYDDVSLEDAPYFSALYGPSRHAIVQPDLSQVTEHLEGLTDCPEDLYLIEGDPQSFDDSVFSVDELEKAVVVKIADRQWRYSRFPEVPLFGRAARESRIESLHAEREVLSERFATLSFDVQKTQRLHQAFSRFIGSHLAVAFESDPEAEIRQLNSRRVELERALSNHENDNQQQRIQFEQAKEGVTALNRILPRLNLLADDSLADRVDEIRERLDEAQEAARFVQQFGNQLAKLEPIVSVLQSDPEQFEQLKEDYAYSQQMQRDARQQAFALTEVVQRRAHFSYSDSAEMLSGNSDLNEKLRERLEQAEAERTRAREALRGHAAQLSQYNQVLASLKSSYDTKKELLNDLQRELQDIGVRADSGAEERARIRRDELHAQLSNNRSRRNQLEKALTFCEAEMDNLTRKLRKLERDYFEMREQVVTAKAGWCAVMRMVKDNGVERRLHRRELAYLSADDLRSMSDKALGALRLAVADNEHLRDVLRMSEDPKRPERKIQFFVAVYQHLRERIRQDIIRTDDPVEAIEQMEIELSRLTEELTSREQKLAISSRSVANIIRKTIQREQNRIRMLNQGLQNVSFGQVNSVRLNVNVRETHAMLLDVLSEQHEQHQDLFNSNRLTFSEALAKLYQRLNPQIDMGQRTPQTIGEELLDYRNYLEMEVEVNRGSDGWLRAESGALSTGEAIGTGMSILVMVVQSWEDESRRLRGKDISPCRLLFLDEAARLDARSIATLFELCERLQMQLIIAAPENISPEKGTTYKLVRKVFQNTEHVHVVGLRGFAPQLPETLPGTDEAPSQAS"}, "B4": {"name": "mukB V760W (protein)", "chain": "MIERGKFRSLTLINWNGFFARTFDLDELVTTLSGGNGAGKSTTMAAFVTALIPDLTLLHFRNTTEAGATSGSRDKGLHGKLKAGVCYSMLDTINSRHQRVVVGVRLQQVAGRDRKVDIKPFAIQGLPMSVQPTQLVTETLNERQARVLPLNELKDKLEAMEGVQFKQFNSITDYHSLMFDLGIIARRLRSASDRSKFYRLIEASLYGGISSAITRSLRDYLLPENSGVRKAFQDMEAALRENRMTLEAIRVTQSDRDLFKHLISEATNYVAADYMRHANERRVHLDKALEFRRELHTSRQQLAAEQYKHVDMARELAEHNGAEGDLEADYQAASDHLNLVQTALRQQEKIERYEADLDELQIRLEEQNEVVAEAIERQQENEARAEAAELEVDELKSQLADYQQALDVQQTRAIQYNQAIAALNRAKELCHLPDLTADCAAEWLETFQAKELEATEKMLSLEQKMSMAQTAHSQFEQAYQLVVAINGPLARNEAWDVARELLREGVDQRHLAEQVQPLRMRLSELEQRLREQQEAERLLADFCKRQGKNFDIDELEALHQELEARIASLSDSVSNAREERMALRQEQEQLQSRIQSLMQRAPVWLAAQNSLNQLSEQCGEEFTSSQDVTEYLQQLLEREREAIVERDEVGARKNAVDEEIERLSQPGGSEDQRLNALAERFGGVLLSEIYDDVSLEDAPYFSALYGPSRHAIVVPDLSQVTEHLEGLTDCPEDLYLIEGDPQSFDDSVFSVDELEKAVVWKIADRQWRYSRFPEVPLFGRAARESRIESLHAEREVLSERFATLSFDVQKTQRLHQAFSRFIGSHLAVAFESDPEAEIRQLNSRRVELERALSNHENDNQQQRIQFEQAKEGVTALNRILPRLNLLADDSLADRVDEIRERLDEAQEAARFVQQFGNQLAKLEPIVSVLQSDPEQFEQLKEDYAYSQQMQRDARQQAFALTEVVQRRAHFSYSDSAEMLSGNSDLNEKLRERLEQAEAERTRAREALRGHAAQLSQYNQVLASLKSSYDTKKELLNDLQRELQDIGVRADSGAEERARIRRDELHAQLSNNRSRRNQLEKALTFCEAEMDNLTRKLRKLERDYFEMREQVVTAKAGWCAVMRMVKDNGVERRLHRRELAYLSADDLRSMSDKALGALRLAVADNEHLRDVLRMSEDPKRPERKIQFFVAVYQHLRERIRQDIIRTDDPVEAIEQMEIELSRLTEELTSREQKLAISSRSVANIIRKTIQREQNRIRMLNQGLQNVSFGQVNSVRLNVNVRETHAMLLDVLSEQHEQHQDLFNSNRLTFSEALAKLYQRLNPQIDMGQRTPQTIGEELLDYRNYLEMEVEVNRGSDGWLRAESGALSTGEAIGTGMSILVMVVQSWEDESRRLRGKDISPCRLLFLDEAARLDARSIATLFELCERLQMQLIIAAPENISPEKGTTYKLVRKVFQNTEHVHVVGLRGFAPQLPETLPGTDEAPSQAS"}}, "note": "± gives the standard deviation of the averaged measurements. Laboratory Escherichia coli strains with one amino-acid change in an essential protein, pooled on minimal glucose agar with carbenicillin or gentamicin at twice the control MIC (plus kanamycin and chloramphenicol for the plasmids), 48 h. Fold change of barcode share against drug-free plates; higher = less susceptible. Active = above 20 in both replicates (the paper's putatively resistant). '<' = one read or none on drug, '>' = one read or none on a drug-free plate. Shares are relative, so most strains fall below 1 when a few take over. Listed are strains with at least 15 reads on both drug-free plates, and hits; most hits rest on fewer reference reads. Replicate rank correlation about 0.5. Edits are read from barcodes.", "data": [{"biological_target": "Escherichia coli (laboratory strain)", "experiment": "barcode share on antibiotic plates over drug-free plates; higher = less susceptible", "settings": "antibiotic: carbenicillin; 2× MIC (3.1 µg/mL)", "procedure": "(§1)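 A pool of E. coli strains, each edited to carry one amino-acid change in an essential protein, was grown for 48 h on minimal glucose agar with or without antibiotic; strain barcodes were sequenced; mean of two replicates.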", "values": [{"protein": "B1", "fold change of barcode share": "0.314 ± 0.17"}, {"protein": "B2", "fold change of barcode share": "0.163 ± 0.089"}, {"protein": "B3", "fold change of barcode share": "0.232 ± 0.12"}, {"protein": "B4", "fold change of barcode share": "0.303 ± 0.23"}]}, {"biological_target": "Escherichia coli (laboratory strain)", "experiment": "barcode share on antibiotic plates over drug-free plates; higher = less susceptible", "settings": "antibiotic: gentamicin; 2× MIC (MIC 0.45 µg/mL)", "procedure": "as §1", "values": [{"protein": "B1", "fold change of barcode share": "0.00591 ± 0.00096"}, {"protein": "B2", "fold change of barcode share": "< 0.0151"}, {"protein": "B3", "fold change of barcode share": "0.0691 ± 0.083"}, {"protein": "B4", "fold change of barcode share": "< 0.0145"}]}]}
